Source: US20260200947A1, “FUSED CYCLIC COMPOUNDS AND USE THEREOF” (Jacobio Pharmaceuticals Co., Ltd., priority 2022, published 2026)
Where two headings read alike, the source gives them in different places.

Key:
[1] = test system: Capan-2 cells (K-Ras G12V)
[2] = test system: AsPC-1 cells (K-Ras G12D)
[3] = test system: AGS cells (K-Ras G12D)
[4] = test system: SW620 cells (K-Ras G12V)
[5] = test system: AGS cells (K-Ras G12D); remark: listed apart in the source

SMILES | IC50 [1] | IC50 [2] | IC50 [3] | IC50 [4] | IC50 [5]
C#Cc1c(F)ccc2cc(N)cc(-c3nc4c5c(nc(OC[C@@]67CCCN6C[C@H](F)C7)nc5c3F)N3[C@@H](COCC[C@@H]3C3CC3)CO4)c12 [Compound 64] | 0.000785 µM |  |  |  | 
C#Cc1c(F)ccc2cc(N)cc(-c3nc4c5c(nc(OC[C@@]67CCCN6C[C@H](F)C7)nc5c3F)N3[C@@H](C)CCO[C@H](C)[C@H]3N4C)c12 [Compound 122] |  | 0.114 µM | 0.0259 µM |  | 
C[C@H]1CCOC[C@H]2N(C)c3nc(-c4cc(N)cc5ccc(F)c(Cl)c45)c(F)c4nc(OC[C@@]56CCCN5C[C@H](F)C6)nc(c34)N12 [Compound 120] |  | 0.0472 µM | 0.0121 µM | 0.039 µM | 
C#Cc1c(F)ccc2cc(N)cc(-c3nc4c5c(nc(OC[C@@]67CCCN6C[C@H](F)C7)nc5c3F)N3C5CC5COC[C@H]3CO4)c12 (stereo partly shown) [Compound 35] |  |  |  |  | 0.0171 µM
